Results from the RNAGym collection of RNA variant scans (doi:10.1093/nar/gkz1192).
Read counts are not given, so values of variants with three or more changes are uncertain.

B1: CPEB3 Ribozyme (parent)
chain: UAACAGGGGGCCACAGCAGAAGCGUUCACGUCGCAGCCCCUGUCAGAUUCUGGUGAAUCUGCGAAUUCUGCUGUAUAUCUC

Variants of: B1
Test: self-cleavage, relative activity (ratio to wild type); higher = more cleavage; in vitro, sequencing
Outline: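 Relative activity compares each variant's cleaved/total read fraction with that of the unmutated ribozyme. To get these fractions, barcoded CPEB3 ribozyme libraries from rounds of error-prone PCR were transcribed with T7 RNA polymerase for 5 hours at 37°C and then given 15 min of DNase I treatment before EDTA was added. The RNAs were reverse transcribed with template switching and sequenced on Illumina, and DNA sequencing linked barcodes to variants. A minimum of 5 reads applied, and three batches were averaged.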
G6C A15U A18U A47U U66C U78C showed a self-cleavage of 0.04. G6A G9U U26A U72C U78A showed a self-cleavage of 0.05. Work on G6A G9A A15U U31C U43C yielded a self-cleavage of 0.06. Variant G6A C11U U54C A75U has a self-cleavage of 0.06. For G6A G33A G63A U67C, the self-cleavage was 0.05. With G6A A57G U66C U80G the self-cleavage was 0.11. For G6A U26C U72G, the self-cleavage was 0.25. Variant G6A G10C A15U G24U U25C U69C has a self-cleavage of 0.07. In the case of G6A U25C U41C, the self-cleavage is reported as 0.05. G6A U26A C27A A28G U41A gave a self-cleavage of 0.08. With G6A C11A C23U G30U A45G U67A U74A the self-cleavage was 0.02. Variant G6C U25C U67C has a self-cleavage of 0.26. With G6A C12A C14A C38A the self-cleavage was 0.26. In the case of G6A U31G A64U, the self-cleavage is reported as 0.19. G6C G22A U26A A35G A56U showed a self-cleavage of 0.05. For G6A U25C C32A U80A, the self-cleavage was 0.29. G6A C62U U72A U80C gave a self-cleavage of 0.08. In the case of G6U A15G A35G U60C, the self-cleavage is reported as 0.58. Variant G6A C14U A18C C40A U49C A64G A77G has a self-cleavage of 0.03. In the case of G6C U25A U48A C62U, the self-cleavage is reported as 0.33. Work on G6A U26A G42C U72C yielded a self-cleavage of 0.07. G6A C32A A64U showed a self-cleavage of 0.09. G6A U31A U41C U54A C62U A65G showed a self-cleavage of 0.06. G6C A20G U66C showed a self-cleavage of 0.38. In the case of G6A U48C A77G, the self-cleavage is reported as 0.49. G6A U25C A45G gave a self-cleavage of 0.1. Variant G6A U26G G36U U54A has a self-cleavage of 0.05. For G6A C23U A57G, the self-cleavage was 0.21. Variant G6A G7A A45C U51A U78C has a self-cleavage of 0.07. Variant G6A U25C A28U has a self-cleavage of 0.08. Variant G6A U31A U72A has a self-cleavage of 0.21. For G6A U26C C44G U60A, the self-cleavage was 0.27. For G6A U41C U48A U67C A77G, the self-cleavage was 0.15. G6A G24A U25C A28U C39A U49A U74C showed a self-cleavage of 0.05. G6A C12G C29G showed a self-cleavage of 0.24. G6A C37U A64U U67C U72A gave a self-cleavage of 0.13. Variant G6A C12U U43C G52U U60C U78C has a self-cleavage of 0.06. G6A G16A A35G A45U U78G showed a self-cleavage of 0.25. G6A C14U U54C U60A showed a self-cleavage of 0.07. G6A U25C U49C A64G showed a self-cleavage of 0.1. For G6A U26A C39U C44A U80C, the self-cleavage was 0.06. G6C A20G U26A U31C U43A U60A U69C showed a self-cleavage of 0.05. G6A U41C U80C gave a self-cleavage of 0.19. Variant G6C G19C A45G A57G has a self-cleavage of 0.41. Work on G6A U43C U51C U69C yielded a self-cleavage of 0.28. In the case of G6A U48C U51A A57U, the self-cleavage is reported as 0.05. With G6A G30A A47U U66G U80A the self-cleavage was 0.04. G6A U31A C40U U74C showed a self-cleavage of 0.06. G6U A15G U76A showed a self-cleavage of 0.44. G6A G10A A35U U48C A64G A75U showed a self-cleavage of 0.04. Variant G6A U25C U43A C62U U66C U76C has a self-cleavage of 0.06. For G6A C11U U26C U41C G55A U58A, the self-cleavage was 0.05. G6C G42A U51C C62U gave a self-cleavage of 0.53. With G6C U25C U26A U31C A47G U80C the self-cleavage was 0.21. In the case of G6A U43C U72A U78C, the self-cleavage is reported as 0.06. Work on G6A G8A C23G G33U A75G yielded a self-cleavage of 0.04. With G6A C17A C29U the self-cleavage was 0.18. For G6A C23G C29U A45G A57G U69A, the self-cleavage was 0.07. Variant G6C G7A U31G U49A U54G A77U has a self-cleavage of 0.2. In the case of G6C U49A U74C U78A, the self-cleavage is reported as 0.63. With G6A U43A U66C U78C the self-cleavage was 0.1. In the case of G6A C34G A56G U66C, the self-cleavage is reported as 0.2. G6A C40U A57G A77G gave a self-cleavage of 0.13. With G6A U25C U66C the self-cleavage was 0.37. Work on G6A A57U A75U yielded a self-cleavage of 0.05. In the case of G6U A15G C17G A28C U76C, the self-cleavage is reported as 0.42. For G6A U41C A47G C50A U60C, the self-cleavage was 0.18. In the case of G6C A28U C59G A64G, the self-cleavage is reported as 0.2. In the case of G6C A18U A45U, the self-cleavage is reported as 0.31. Work on G6A U41C U58C yielded a self-cleavage of 0.06. With G6A G9U C23G U54C the self-cleavage was 0.05. G6A C12U U49C A64C showed a self-cleavage of 0.06. For G6A C29U U78C, the self-cleavage was 0.27. G6A C38G U41G gave a self-cleavage of 0.28. For G6A G24A A28U U41C, the self-cleavage was 0.15. G6A G8A G9A A77G gave a self-cleavage of 0.41. With G6A G9A A15U C23U U25C U31C U43C the self-cleavage was 0.11. G6A G10C U60C gave a self-cleavage of 0.4. Work on G6A U25C U31A A45G A47G yielded a self-cleavage of 0.28. Work on G6U A15G C17G A65G U66C yielded a self-cleavage of 0.03. Work on G6A G10A A28G U31A yielded a self-cleavage of 0.23. With G6A U43C A45G U51A the self-cleavage was 0.18. With G6U A13G A35G U41C A56G U60C the self-cleavage was 0.13. For G6A C39G A57G, the self-cleavage was 0.33. G6A U25G U49A A64G U69A C81U showed a self-cleavage of 0.05. G6C U25C U48C U74C showed a self-cleavage of 0.07. With G6A U25C C34U A45G A56U C59G A65G the self-cleavage was 0.02. G6A G63A A75U showed a self-cleavage of 0.33. For G6A U25C A47G U54C, the self-cleavage was 0.05. For G6A C34G U66C, the self-cleavage was 0.18. G6A C32U A45G U49C A56G showed a self-cleavage of 0.19. G6A C12U G16A U41C U72C gave a self-cleavage of 0.26. G6A C44A A56G A65G gave a self-cleavage of 0.08. For G6A G33A U60C A64G, the self-cleavage was 0.05. Work on G6U A13G U49A U51A U80C yielded a self-cleavage of 0.08. Work on G6A U26G C40A U54A A64U U67C yielded a self-cleavage of 0.04. For G6A G30A A64G U69A, the self-cleavage was 0.09. With G6A U25A G33A U41C U66C the self-cleavage was 0.08. For G6A U51A A64U, the self-cleavage was 0.13. Work on G6A C38U U41G G42C yielded a self-cleavage of 0.09. Variant G6A G9U A47G A65G U78A has a self-cleavage of 0.06. Variant G6A U31C A35U C40G U58A has a self-cleavage of 0.07. G6A G9A A18G A35G showed a self-cleavage of 0.15. With G6A C23U U41G U49C U69A the self-cleavage was 0.06. G6A C37U A45G gave a self-cleavage of 0.18. G6C G9C C40U U66C U78C gave a self-cleavage of 0.11. G6A U41C U54A U66C showed a self-cleavage of 0.21. In the case of G6A U25A U26G A77G U80A, the self-cleavage is reported as 0.26. G6A C23U U51A A57G A64G showed a self-cleavage of 0.08. For G6A U60A C71A, the self-cleavage was 0.04. In the case of G6A G9U G42A A57G U67C A77U, the self-cleavage is reported as 0.06. With G6A U26C U31G A56G the self-cleavage was 0.05. Variant G6C C23G C32A U41A U66C has a self-cleavage of 0.18. G6A C11U A56U U67C C68A showed a self-cleavage of 0.21. Variant G6A U41A U43A U58A U67C U74A has a self-cleavage of 0.21. Variant G6A C11G A35G C38A C39U U49C C81G has a self-cleavage of 0.28. Variant G6A G9A U31C U43C A56G has a self-cleavage of 0.21. G6A C14A C23U C34G U48A A64G showed a self-cleavage of 0.04. For G6A G9C U31A A64G, the self-cleavage was 0.06. For G6C C14A A15G A56U, the self-cleavage was 0.08. With G6A U25C U31A U54A the self-cleavage was 0.07. In the case of G6U A15G A18C A21G A64G U78A, the self-cleavage is reported as 0.04. For G6A C12U A20G A21G U48C U74A, the self-cleavage was 0.06. Work on G6A U51C U76C yielded a self-cleavage of 0.41. G6A U43C U51A gave a self-cleavage of 0.23. Variant G6A U41C A64G has a self-cleavage of 0.41. With G6A U26A A28G U67C the self-cleavage was 0.11. In the case of G6C G8C G9A G10C A28G A35U U54C, the self-cleavage is reported as 0.34. G6A U25G U54C showed a self-cleavage of 0.28. Variant G6A U25C A35U A64G U72A has a self-cleavage of 0.05. Variant G6C U49C U67C has a self-cleavage of 0.27. Variant G6A U25A A35G A65G U69C has a self-cleavage of 0.05. G6A U25C U43A A56G U72C U78C gave a self-cleavage of 0.06. G6U A15G A77U gave a self-cleavage of 0.13. G6A G10A U25C A45U U54A gave a self-cleavage of 0.14. G6C U25C U60C U72A showed a self-cleavage of 0.16. Work on G6U A15G C17G U26A G36A U41A yielded a self-cleavage of 0.05. G6A U31C U54C gave a self-cleavage of 0.33. Work on G6A C11G A65U yielded a self-cleavage of 0.34. G6A C27U U66C U69A A75U gave a self-cleavage of 0.1. G6A C29U A57G A64G U72A U74C gave a self-cleavage of 0.05. G6A U51A A57G gave a self-cleavage of 0.18. With G6C G9U A28G A77U the self-cleavage was 0.53. With G6U A15G U41C G55A G70C U74C the self-cleavage was 0.07. In the case of G6A U26A A57G, the self-cleavage is reported as 0.08. With G6C A13C A56U U67A the self-cleavage was 0.25. G6A U25C A45G U49C U51G gave a self-cleavage of 0.38. For G6A C12U A21G A28G U78A, the self-cleavage was 0.05. Variant G6A C29G U31A U54A A57U has a self-cleavage of 0.32. Work on G6A U25C A28G A45G yielded a self-cleavage of 0.07. G6A G9A C23U U25C G55A gave a self-cleavage of 0.07. With G6C G7A A35G U67C U69C C71U the self-cleavage was 0.05. With G6C A13U A21G the self-cleavage was 0.25. For G6C U25C C29U C68A U74C, the self-cleavage was 0.24. Work on G6C U51C U66C yielded a self-cleavage of 0.25. G6A U41C U48C U58A U66C G73C U78C showed a self-cleavage of 0.04. G6A G10A U41A U49C gave a self-cleavage of 0.05. Work on G6A U26C U41C A57G U76C yielded a self-cleavage of 0.23. Work on G6A U25C U31C A57G A64G yielded a self-cleavage of 0.08. G6C U25A U26C C27U A45C U66C U69A showed a self-cleavage of 0.07. Work on G6A U26C G30U A56U yielded a self-cleavage of 0.06. Variant G6A G9A C23U G52U U74A U80G has a self-cleavage of 0.04. Work on G6A U25C U69C yielded a self-cleavage of 0.05. With G6A C11A A13U U72C the self-cleavage was 0.61. G6A C17A A21U U41C U51G A65U U78C gave a self-cleavage of 0.06. G6A U43G U48A U69A showed a self-cleavage of 0.2. In the case of G6C U41C U67C, the self-cleavage is reported as 0.15.
